Experimental data reported in PubChem BioAssay AID445 (National Center for Advancing Translational Sciences (NCATS), 2006).
The whole screen tested about 110,000 compounds, of which about 40 (0.04%) were called active. The inconclusive results got no clear call from the source; some entries with a clear call stand among them for comparison. The call rests on the fitted dose curve; in most records, active means well fitted curve in the direction sought with a large enough effect in the signal ratio (not every such curve was filed as active); inconclusive means small, poorly fitted or top-dose-only effect, or a change in a side signal; inactive means flat fitted curve, though single readings scatter; the % refers to the signal ratio. A potency beside an inconclusive call is a rough fit, not a confirmed value.

Assay: IkB Signaling;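 on IkBa stabilization activation: 0% = basal untreated cells and 100% = reference inhibitor full response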
Settings: ABC-DLBCL IkBa-CBG/CBR dual luciferase ratio (green luciferase fused to IkBa over red control in OCI-Ly3 lymphoma cells), 4 h; IkBa stabilization activation: at 57.1 µM (top of the series), scaled: untreated 0%, proteasome inhibitor 100% unless noted
How it was run: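 Curves were fitted separately to fusion (green), unfused (red) and ratio luminescence, then classed by r2, magnitude and activity. Cells: OCI-Ly3, 4 h compound plus doxycycline at 37C; 10 uM MG-132 defined full response.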
Potency means the concentration at half of the fitted maximal effect.

Row | SMILES | IkBa stabilization activation | Potency
1 | CCCOc1ccccc1NC(=O)c1ccc(N)cc1 | inactive | 
2 | O=C(NCc1ccccc1)c1cc2sccc2n1Cc1ccc(Cl)cc1 | inconclusive: 0.254% [signal inhibitor] | 
3 | CCCCSc1nc(-c2ccc(OC)cc2)ccc1C#N | inactive | 
4 | CC(C)c1nc2oc3c(N4CCNCC4)ncnc3c2c2c1CCC2 | inactive | 
5 | Cc1ccccc1NS(=O)(=O)c1ccc2[nH]cc(C(=O)N(C)Cc3ccco3)c(=O)c2c1 |  | inconclusive: 31.6 µM [signal inhibitor, partial curve]
6 | Cc1ccc2occ(CC(=O)N(Cc3ccccc3Cl)C3CCS(=O)(=O)C3)c2c1 (stereo unspecified) | inconclusive: -0.0028% [signal inhibitor] | 
7 | CCC(=O)Nc1ccc(NC(=O)c2cc3ccccc3o2)cc1 | inactive | 
8 | O=C(CSc1oc(-c2ccccc2)nc1S(=O)(=O)c1ccc(Cl)cc1)Nc1ccc(F)cc1 | inconclusive: 4.78% [signal inhibitor] | 
9 | Cc1cc(OCC(=O)Nc2ccc3c(c2)OCCO3)ccc1Cl | inconclusive: 2.98% [signal inhibitor] | 
10 | CCCn1c(SCC(=O)O)nc2ccccc21 | inactive | 
11 | Cc1ccc(Cn2cc(CCC(=O)NC3CCC(C)CC3)c3ccccc32)cc1 (stereo unspecified) | inconclusive: -2.11% [signal inhibitor] | 
12 | CC1CCC(Nc2nc3c(-c4ccc(Cl)cc4)nnn3c3ccccc23)CC1 (stereo unspecified) | inconclusive: 3.44% [signal inhibitor] | 
13 | Cc1c(OCc2ccc(C(=O)O)o2)ccc2c3c(c(=O)oc12)CCC3 |  | inconclusive: 15.8 µM [signal inhibitor, partial curve]
14 | Cc1nn2c(=O)cc(COC(=O)c3ccco3)nc2s1 | inactive | 
15 | O=C(CC(c1cccs1)N1Cc2ccccc2C1=O)Nc1ccc(F)c(F)c1 (stereo unspecified) | inconclusive: -2.46% [signal inhibitor] | 
16 | CCOC(=O)c1ccc(-n2c(CCC(=O)O)ccc2-c2ccc(Br)cc2)cc1 | inconclusive: 7.52% [signal inhibitor] | 
17 | O=C(Nc1c(C(=O)N2CCN(c3ccccc3)CC2)oc2ccccc12)c1ccc(Br)o1 | inactive | 
18 | O=c1cc(-c2ccc(Cl)c(Cl)c2)[nH][nH]1 | inconclusive: 10.9% [signal inhibitor] | 
19 | COc1ccc(CC(=O)Nc2sc3c(c2C(=O)Nc2cccc(Cl)c2)CCCCC3)cc1 | inconclusive: 8.12% [signal inhibitor] | 
20 | CCn1cc(Br)c(C(=O)Nc2ccc(C(=O)OC(C)C)cc2)n1 | inconclusive: 0.891% [signal inhibitor] | 
21 | CC(C)Oc1ccc(CNC(=O)CCCN2C(=O)CCn3nc(-c4cccn4C)cc32)cc1 | inconclusive: 4.58% [signal inhibitor] | 
22 | COc1ccccc1N1CCN(C(=O)C(CCSC)NS(=O)(=O)c2ccc3c(c2)oc(=O)n3C)CC1 (stereo unspecified) | inactive | 
23 | Cc1ccccc1-n1c(=O)cc(N2CCN(Cc3ccccc3)CC2)[nH]c1=O | inactive | 
24 | COc1cc(C2Nc3cccc4cccc(c34)N2)ccc1OC(C)=O | inactive | 

Row | SMILES | IkBa stabilization activation | Potency
25 | Cc1nn(-c2ccccc2)c2c1N(CCCC(=O)NCc1ccc(N(C)C)cc1)C(=O)CS2 | inconclusive: 3.6% [signal inhibitor] | 
26 | COc1cc(=O)n(C)c2c(OC[C@@H](O)C(C)(C)O)cccc12 | inactive | 
27 | CCC(=O)N1c2ccccc2CC1C(=O)N1CCN(c2cccc(Cl)c2)CC1 (stereo unspecified) | inconclusive: 3.16% [signal inhibitor] | 
28 | COc1cccc(-c2nc(CS(=O)(=O)CC(=O)N3CCc4ccccc4C3)c(C)o2)c1 | inconclusive: 5.8% [signal inhibitor] | 
29 | CC(C)Cc1nnc(NC(=O)CCN2C(=O)c3ccccc3C2=O)s1 |  | inconclusive: 20 µM [signal inhibitor, partial curve]
30 | COc1cc(-c2nc(-c3ccccn3)no2)cc(OC)c1OC |  | inconclusive: 12.6 µM [signal inhibitor, partial curve]
31 | COc1ccc2occ(C(=O)c3coc4ccc(O)c(CN(C)C)c34)c2c1 |  | inconclusive: 20 µM [signal inhibitor, partial curve]
32 | c1csc(-c2csc3nc(CN4CCOCC4)nc(NCc4ccc5c(c4)OCO5)c23)c1 | inconclusive: -0.839% [signal inhibitor] | 
33 | COc1ccccc1CNc1ccnc(-c2cccc(C#N)c2)n1 | inactive: 0.554% [at 11.4 µM, scaled: untreated 0%, proteasome inhibitor 100%] | 
34 | COC(=O)c1ccccc1NC(=O)Cn1c(=O)n(CCC(=O)NCc2ccccc2OC)c(=O)c2ccccc21 |  | inconclusive: 25.1 µM [rising, partial curve]
35 | COc1c(O)cc2oc3cc(O)c(CC=C(C)C)c(O)c3c(=O)c2c1CC=C(C)C | inactive: 1.13% [at 11.4 µM, scaled: untreated 0%, proteasome inhibitor 100%] | 
36 | COc1cc(OC)cc(-c2cc3nc(C)c(CCC(=O)Nc4ccc(C(C)=O)cc4)c(C)n3n2)c1 | inconclusive: 16.5% [signal inhibitor] | 
37 | CC(C)c1ccc(CNc2nc(-c3ccco3)nn2C(=O)c2ccc([N+](=O)[O-])cc2)cc1 | inconclusive: -0.312% [signal inhibitor] | 
38 | CN(C(=O)c1ccc2c(=O)n3c(nc2c1)CCCCC3)c1ccccc1 | inactive | 
39 | CSCCC(NS(=O)(=O)c1ccc2c(c1)oc(=O)n2C)C(=O)Nc1ccc(Cl)cc1 (stereo unspecified) | inconclusive: 5.01% [signal inhibitor] | 
40 | Cc1ccc(C(=O)Nc2ccc(Cl)cn2)cc1 | inconclusive: 3.32% [signal inhibitor] | 
41 | COCc1cc(C)nc2sc3c(c12)NC(c1ccc(O)c(OC)c1)N(c1ccccc1)C3=O (stereo unspecified) | inconclusive: 1.95% [signal inhibitor] | 
42 | COc1ccc(OCC(=O)N(Cc2cccs2)c2ccc(OC)cc2)cc1 | inconclusive: 2.54% [signal inhibitor] | 
43 | Cc1cc(=O)c2c(O)c(O)ccc2o1 | inactive | 
44 | CCOC(=O)c1nnn(-c2nonc2N)c1CSc1ccc(C)cc1 | inconclusive: 3.94% [signal inhibitor] | 
45 | COc1ccc(-c2noc(N3CCC(C(=O)N4CCN(c5ccccc5F)CC4)CC3)n2)cc1 | inactive | 
46 | CCOCCn1c(CN2CCN(c3ccccc3)CC2)nc2c1c(=O)n(C)c(=O)n2C | inactive | 
47 | CCOCCCNc1nc2ccccc2n2c(CC)nnc12 |  | inconclusive: 31.6 µM [signal inhibitor, single point]
48 | CCOc1ccccc1CNC(=O)c1ccc(NC(=O)N2CC(C)Sc3ccccc32)cc1 (stereo unspecified) | inconclusive: 2.92% [signal inhibitor] | 

Row | SMILES | IkBa stabilization activation | Potency
49 | COc1cccc(Nc2cc(C)nc3nc(C)nn23)c1 | inactive | 
50 | CCOc1ccc(C(=O)NCc2nc3cccnc3n2Cc2cccc(OC)c2)cc1 | inactive | 
51 | Cn1c(SCC(=O)NCc2ccco2)nc2ccccc2c1=O | inactive | 
52 | COc1ccc(OC)c(CNC(=O)CN(c2ccc(C)cc2)S(=O)(=O)N(C)C)c1 | inconclusive: 3.24% [signal inhibitor] | 
53 | C/C(Cl)=C\Cn1c(N2CCCC2)nc2c1c(=O)[nH]c(=O)n2C | inactive | 
54 | CCCN(C(=O)Cn1ncc2c1-c1ccccc1OC2)c1cccc(C)c1 | inconclusive: 2.48% [signal inhibitor] | 
55 | O=C(Nc1ccc2c(c1)OCCO2)c1ccc(Br)c(S(=O)(=O)N2CCOCC2)c1 | inconclusive: -5.28% [signal inhibitor] | 
56 | CCc1ccc(-c2nc(SCC(=O)NCC3CCCO3)c(-c3ccc(C)cc3)[nH]2)cc1 (stereo unspecified) | inconclusive: 7.69% [signal inhibitor] | 
57 | Cc1cccc(N2CCN(c3ccc(C(=O)O)cc3NC(=O)c3cccc(Cl)c3)CC2C)c1 (stereo unspecified) | inconclusive: 15% [signal inhibitor] | 
58 | CSCC[C@@H](C(=O)Nc1cccc(F)c1)N1Cc2ccccc2C1=O | inconclusive: 2.59% [signal inhibitor] | 
59 | CCOC(=O)C1CCN(c2c(C(=O)c3ccc(OC)cc3)cnc3ccccc23)CC1 | inconclusive: -0.297% [signal inhibitor] | 
60 | COc1ccc(CCNC(=O)c2nc(SCc3ccccc3F)ncc2Cl)cc1OC | inactive | 
61 | Cc1ccc(C)c(Cn2c(CO)nc3ccccc32)c1 | inactive | 
62 | CCOC(=O)c1cc2c(=O)n3ccccc3nc2n(Cc2ccco2)c1=NC(=O)c1ccc(C)c(C)c1 | inconclusive: 13.2% [signal inhibitor] | 
63 | Cc1cc(C)cc(-n2c(C)cc(C(=O)C(=O)Nc3nnc(C)s3)c2C)c1 | inconclusive: 9.31% [signal inhibitor] | 
64 | CN(C(=O)Cn1cnc2onc(-c3ccc(F)cc3)c2c1=O)c1ccccc1Cl | inconclusive: -0.926% [signal inhibitor] | 
65 | O=[N+]([O-])c1cc(-c2nc(-c3ccco3)no2)ccc1NCc1ccccc1 | inconclusive: 0.537% [signal inhibitor] | 
66 | Cc1ccc2nc(NC(=O)C3CCCN(S(=O)(=O)c4cccnc4)C3)sc2c1 (stereo unspecified) | inconclusive: 2.4% [signal inhibitor] | 
67 | CC(=O)c1c(Nc2ccc3c(c2)OCCO3)oc(C)cc1=O | inconclusive: 18.5% [signal inhibitor] | 
68 | CCC(=O)Nc1cccc(-c2nc3ccccc3c(=O)o2)c1 | inconclusive: 15.4% [signal inhibitor] | 
69 | COc1ccc(Cn2c(CO)cnc2SCc2ccc(F)cc2)cc1 | inconclusive: 1.43% [signal inhibitor] | 
70 | Cc1cccc(-c2noc(CN(C(=O)CCc3ccccc3)C(C)C)n2)c1 | inconclusive: 2.25% [signal inhibitor] | 
71 | C=CCOC(=O)C(C#N)c1nc2ccccc2nc1N1CCN(Cc2ccc3c(c2)OCO3)CC1 (stereo unspecified) | inactive | 
